Results as given in PubChem BioAssay (NCATS).
This list was built around the results that the source calls inconclusive (neither active nor inactive); the mix of calls is not that of the screen. Potencies of inconclusive entries are doubtful fits and often do not repeat. Calls of active or inactive are those of the source. Unless noted, calls come from the whole dose curve; as a rule, active = well fitted curve in the direction sought with a large enough effect; inconclusive = small, poorly fitted or top-dose-only effect, or another doubt; inactive = no such curve, though single readings can be large; an effect the other way counts as inactive or inconclusive.

Legend:
[1] = biological target: Aldehyde dehydrogenase, mitochondrial (Homo sapiens) (UniProt P05091); experiment: qHTS for Inhibitors of the Aldehyde Dehydrogenase Family (ALDH2) Confirmatory screens (AID 2061303; active = well fitted inhibition curve with a large enough effect; inconclusive = small, poorly fitted or top-dose-only effect; inactive = no such curve, though single readings can be large or run the other way; title and protocol of this record describe different tests; note: nearly all actives have a fitted effect of over 45% in size); details: ALDH inhibition qHTS; activity change, negative = inhibition: at 45.4 µM (top of the series)
[2] = qHTS for Inhibitors of the Aldehyde Dehydrogenase Family (ALDH1A2, ALDH1A3, ALDH2, ALDH3A1) (AID 2061307); details: ALDH inhibition qHTS; activity change, negative = inhibition: at 50.3 µM (top of the series) unless noted; note: test system not described further here; nearly all actives have a fitted effect of over 50% in size
[3] = biological target: Aldehyde dehydrogenase 1A1 (Homo sapiens) (UniProt P00352); experiment: qHTS for Inhibitors of the Aldehyde Dehydrogenase Family (ALDH1A1) Confirmatory screens (AID 2061316); details: activity change, negative = inhibition: at 47.3 µM (top of the series); note: nearly all actives have a fitted effect of over 65% in size
[4] = biological target: Retinal dehydrogenase 2 (Homo sapiens) (UniProt O94788); experiment: qHTS for Inhibitors of the Aldehyde Dehydrogenase Family (ALDH1A2) Confirmation screens (AID 2061314); details: activity, negative = inhibition: at 45.9 µM (top of the series) unless noted; note: nearly all actives have a fitted effect of over 65% in size
[5] = biological target: Aldehyde dehydrogenase, mitochondrial (Homo sapiens) (UniProt P05091); experiment: qHTS for Inhibitors of the Aldehyde Dehydrogenase Family (ALDH2) Primary screen (AID 2061308); note: nearly all actives have a fitted effect of over 55% in size
[6] = biological target: Retinaldehyde dehydrogenase 3 (Homo sapiens) (UniProt P47895); experiment: qHTS for Inhibitors of the Aldehyde Dehydrogenase Family (ALDH1A3) Confirmatory screens (AID 2061311); details: activity change, negative = inhibition: at 46 µM (top of the series); note: nearly all actives have a fitted effect of over 60% in size
[7] = biological target: Retinaldehyde dehydrogenase 3 (Homo sapiens) (UniProt P47895); experiment: qHTS for Inhibitors of the Aldehyde Dehydrogenase Family (ALDH1A3) Primary screen (AID 2061315); details: ALDH inhibition qHTS; activity change, negative = inhibition: at 56 µM (top of the series) unless noted
Potency is the fitted concentration of half-maximal effect; tags give direction and shape of the fitted curve.

SMILES: NC(=O)N1CCN(c2nc(-c3ccc(Br)cc3)cs2)CC1
- Potency [1]: inactive
- Potency [2]: inconclusive: 11.3 µM [inhibitor, partial curve]
- Potency [3]: inactive

SMILES: CNC(=O)C1=C(C)NC(Nc2nc3ccccc3o2)=NC1c1[nH]ncc1Cl (stereo not given)
- Potency [1]: inconclusive: 11.3 µM [inhibitor, partial curve, poor fit]
- Potency [2]: inconclusive: 14.2 µM [inhibitor, partial curve]
- Potency [4]: inconclusive: 17.9 µM [inhibitor, partial curve]
- Potency [3]: inconclusive: 14.2 µM [inhibitor, partial curve, poor fit]

SMILES: CC(=O)Nc1sc2c(c1-c1ccc(N3CCN(C(C)=O)CC3)nc1)CCNC2
- Potency [1]: inconclusive: 8.96 µM [inhibitor, partial curve]
- Potency [2]: inconclusive: 5.65 µM [inhibitor, partial curve, poor fit]
- Potency [3]: inconclusive: 14.2 µM [inhibitor, partial curve]

SMILES: COc1cc(NS(=O)(=O)c2ccc([N+](=O)[O-])cc2)c2ncccc2c1
- Potency [1]: active: 7.08 µM
- Potency [5]: active: 20 µM
- Potency [6]: active: 10 µM
- Potency [4]: active: 3.16 µM
- Potency [7]: inconclusive: 3.55 µM [inhibitor, full curve]
- Potency [3]: active: 5.65 µM

SMILES: CC(=O)Nc1sc2c(c1-c1ccc(C#N)cc1)CCNC2
- Potency [1]: inconclusive: 28.3 µM [inhibitor, partial curve]
- Potency [5]: inconclusive: 39.8 µM [inhibitor, single point]
- Potency [6]: inconclusive: 12.7 µM [inhibitor, partial curve]
- Potency [4]: inconclusive: 14.2 µM [inhibitor, partial curve]

SMILES: Oc1cc2c(cc1CN1CCN(c3ncccn3)CC1)OCO2
- Potency [1]: inconclusive: 4.49 µM [inhibitor, partial curve]
- Potency [5]: inconclusive: 15.8 µM [inhibitor, partial curve, poor fit]
- Potency [6]: active: 10.1 µM
- Potency [7]: inconclusive: 5.01 µM [inhibitor, partial curve, poor fit]
- Potency [3]: active: 5.65 µM

SMILES: Cc1cc(C)nc(NC(=S)N2CCN(c3ccc4cn(C)nc4c3)CC2)c1
- Potency [1]: inconclusive: 0.282 µM [inhibitor, full curve, poor fit]
- Potency [5]: inconclusive: 10 µM [inhibitor, partial curve, poor fit]
- Potency [6]: active: 15.9 µM
- Potency [4]: active: 12.7 µM
- Potency [3]: active: 7.12 µM

SMILES: Cc1nc(C(C)Nc2ncnc3ccc(-c4ccc5c(c4)OCO5)cc23)cs1 (stereo not given)
- Potency [1]: inconclusive: 15.9 µM [inhibitor, partial curve, poor fit]
- Potency [5]: inconclusive: 15.8 µM [inhibitor, partial curve]
- Potency [6]: inactive
- Potency [3]: inconclusive: 17.9 µM [inhibitor, partial curve]

SMILES: O=C1c2ccccc2C(=O)N1c1cccc2ccncc12
- Potency [1]: inactive
- Potency [5]: inconclusive: 25.1 µM [inhibitor, single point]
- Potency [6]: inactive
- Potency [4]: inconclusive: 25.2 µM [inhibitor, single point]
- Potency [3]: inconclusive: 22.5 µM [inhibitor, partial curve, poor fit]

SMILES: Nc1ccccc1OC1=NS(=O)(=O)c2ccccc21
- Potency [1]: inconclusive: 12.7 µM [inhibitor, partial curve, poor fit]
- Potency [5]: active: 2.51 µM
- Potency [6]: inconclusive: 28.3 µM [inhibitor, partial curve, poor fit]
- Potency [4]: inactive
- Potency [3]: inconclusive: 22.5 µM [inhibitor, partial curve, poor fit]

SMILES: CC(O)c1ccc(-c2ccc3ncnc(NCc4nccs4)c3c2)o1 (stereo not given)
- Potency [1]: inconclusive: 22.5 µM [inhibitor, partial curve]
- Potency [5]: inconclusive: 15.8 µM [inhibitor, partial curve]
- Potency [6]: inconclusive: 22.5 µM [inhibitor, partial curve]
- Potency [4]: inconclusive: 11.3 µM [inhibitor, partial curve]
- Potency [3]: active: 10.1 µM

SMILES: N#Cc1ccc(-c2ccc(CNc3ccc(N4CCOCC4)cc3)cn2)cc1
- Potency [1]: inconclusive: 7.98 µM [inhibitor, partial curve]
- Potency [5]: inconclusive: 11.2 µM [inhibitor, partial curve, poor fit]
- Potency [6]: active: 12.7 µM
- Potency [4]: inactive
- Potency [7]: inconclusive: 28.2 µM [inhibitor, partial curve, poor fit]
- Potency [3]: active: 4.49 µM
